Common to all, as to test: Primary Screen for Target Class Profiling of Small Molecule Inhibitors of Methyltransferases
For assay [1], the target named is Guanidinoacetate N-methyltransferase (Homo sapiens) (UniProt Q14353). The note with it: purified enzyme, MTase-Glo SAH luminescence; measured here: GAMT inhibition; at 40 µM; stronger effect = lower value. An outline of the steps:
(§1)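 Each enzyme was assayed with SAM and its substrate. SAH formation detected by MTase-Glo luminescence; single-point 40 uM screen[…].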

The target in assay [2] is Nicotinamide N-methyltransferase (Homo sapiens) (UniProt P40261). The note with it: purified enzyme, MTase-Glo SAH luminescence; measured here: NNMT inhibition; at 40 µM; stronger effect = lower value. The method, boiled down:
as §1

The target in assay [3] is Phenylethanolamine N-methyltransferase (Homo sapiens) (UniProt P11086). The note with it: purified enzyme, MTase-Glo SAH luminescence; measured here: PNMT inhibition; at 40 µM; stronger effect = lower value. An outline of the steps:
as §1

For assay [4], the target named is Glycine N-methyltransferase (Homo sapiens) (UniProt Q14749). The note with it: purified enzyme, MTase-Glo SAH luminescence; measured here: GNMT inhibition; at 40 µM; stronger effect = lower value. An outline of the steps: as §1
In assay [5] the target is Histamine N-methyltransferase (Homo sapiens) (UniProt P50135). The note with it: purified enzyme, MTase-Glo SAH luminescence; measured here: HNMT inhibition; at 40 µM; stronger effect = lower value. The method, boiled down:
as §1

The other results are listed elsewhere or left out. The main result of the screen is listed elsewhere. These columns were measured beside it and carry no call.
% is set by controls: 0 for no effect and ±100 for the full control effect.

Regarding `Cc1ccc(NS(=O)(=O)c2cc3c(cc2N[C@H](C)CO)NC(=O)CC3)cc1C`, the activity change, negative = inhibition was 1.77% in assay [1], -15.3% in assay [2] and -18.6% in assay [3].
Regarding `CC(C)(O)C1CCC2(C)C3C(O)C4C(C13)C42CO` (stereo not drawn), the activity change, negative = inhibition in assay [4] was 6.45%; in assay [1], 7.12%; in assay [5], 10.6%; in assay [2] it was -6.13%; in assay [3], 5.17%.
For `COc1ccc(OC)c(-c2nnc3n(Cc4ccc(C)cc4)c(=O)c4ccccc4n23)c1` the same measures were -4.59%, 0%, -2.14%, -5.1% and -7.19%.
On the same counts, the results for `CC(C)Cn1c(=O)c2ccc(C(=O)NC(C)C)cc2n2c(=O)n(CC(=O)NC(C)(C)C)nc12` are 1.52%, 6.21%, 8.5%, -2.7% and 3.63%.
On the same counts, the results for `CNCCN1C(=O)CC[C@H]2CN(C(=O)COc3cccnc3)CC[C@H]21` are -2.88%, -7.05%, -0.554%, -5.88% and -1.18%.
Take `CC(C)c1nn(-c2c(Cl)cccc2Cl)c2nc(Cc3ccc(OCCO)cc3)[nH]c(=O)c12`: the activity change, negative = inhibition is 1.36% in assay [4]; 5.09% in assay [1]; 11.6% in assay [5]; -38.2% in assay [2]; 5.3% in assay [3].
For `CC(=O)Nc1c2n(c3ccccc13)CC(C)(C(=O)NC1CCCC1)N(CCC(C)C)C2=O` (stereo not drawn) the same measures were 2.88%, 0.044%, 1.31%, 8.54% and 3.54%.
Consider `c1ccc(Nc2cc3c(cn2)NCCN(Cc2ccccn2)C3)cc1`, for which the activity change, negative = inhibition was -18.3% in assay [4]; -7.18% in assay [1]; -16.4% in assay [5]; -8.71% in assay [2]; -34.8% in assay [3].
For `CC(C)CCN1C(=O)c2cc(-c3cccs3)nn2CC1(C)C(=O)NC1CCCCC1` (stereo not drawn) the same measures were 3.5%, 0%, 8.51%, 14.5% and 5.19%.
For `NC(=O)CN1CC2(CCC1=O)CCN(C[C@@H](O)CO)CC2` the same measures were 0.183%, -0.922%, 2.23%, 0.052% and -5.12%.
On the same counts, the results for `CCCn1c(=O)c2ccccc2n2c(=O)n(CC(=O)c3cc(C)ccc3C)nc12` are 1.24%, 3.55%, 6.18%, -32.3% and 2.69%.
Turning to `C[C@@H]1C[C@H]2[C@@H]3C[C@H](F)C4=CC(=O)C=C[C@]4(C)[C@@]3(F)[C@@H](O)C[C@]2(C)[C@@]1(O)C(=O)CO`, the activity change, negative = inhibition was 6.55% in assay [4]; 4.4% in assay [1]; 3.66% in assay [5]; -8.28% in assay [2]; 0.432% in assay [3].
On the same counts, the results for `Cc1ccc(CN2CC[C@H](c3nc4cc(C)ccc4o3)C2)cc1` are -2.24%, -0.908%, -0.753%, 0.145% and -1.94%.
On the same counts, the results for `CCN1C(=O)Cc2cc(C(=O)NCc3c(C)cc(C)cc3C)ccc21` are -2.36%, -8.96%, -9.64%, -19.4% and -11.1%.
On the same counts, the results for `COc1cc(N2CCC(N3CCN(C)CC3)CC2)ccc1Nc1ncc(Cl)c(-c2c[nH]c3ccccc23)n1` are -47.9%, -13.2%, -73.5%, -34.5% and -32.3%.
Take `CN1C(=O)c2cc(C(=O)N3CCN(c4ccccc4F)CC3)nn2CC1(C)C(=O)NC1CCCC1` (stereo not drawn): the activity change, negative = inhibition in assay [4] is 1.72%; in assay [1] it was 0%; in assay [5], 4.68%; in assay [2], -1.87%; in assay [3], 2.01%.
In the case of `Cc1cc2c(cc1CC(=O)c1sccc1S(=O)(=O)Nc1onc(C)c1Cl)OCO2`, the activity change, negative = inhibition in assay [4] is -1.23%; in assay [1], -4.71%; in assay [5], 12.1%; in assay [2], -63.7%; in assay [3] it was -0.265%.
On to `CCN(CC)C(=O)c1cc2c(s1)CCC(C(=O)N1CCN(c3ccccn3)CC1)C2` (stereo not drawn), for which the activity change, negative = inhibition is -10.1% in assay [4]; -8.87% in assay [1]; -5.49% in assay [5]; -16.4% in assay [2]; 4.93% in assay [3].
For `CCCN1C(=O)c2c(C(=O)NCc3ccccc3OCC)ncn2CC1(C)C(=O)NCc1ccc(C)cc1` (stereo not drawn) the same measures were 0.268%, 0%, 2.38%, 1.07% and 4.91%.
For `CC(CNc1nc2c(-c3ccccc3)nnn2c2ccccc12)c1ccccc1` (stereo not drawn) the same measures were 1.5%, 1.33%, -10.4%, 1.9% and -0.98%.
For `COc1ccccc1OCCN1C(=O)C2(CCOCC2)CC1c1nnnn1C(C)(C)C` (stereo not drawn) the same measures were -0.033%, -4.07%, 0.769%, -4.54% and 0.534%.
Regarding `COc1cccc(CN2C(=O)c3ccc(-c4ccco4)n3CC2(C)C(=O)NCCC(C)C)c1OC` (stereo not drawn), the activity change, negative = inhibition is -1.06% in assay [4]; 0.555% in assay [1]; 8.65% in assay [5]; 4.3% in assay [2]; 2.29% in assay [3].
On to `COc1cc(C(O)C(CO)Oc2ccc(CCCO[C@@H]3O[C@@H](C)[C@H](O)[C@@H](O)[C@H]3O)cc2OC)ccc1O` (stereo partly drawn), for which the activity change, negative = inhibition in assay [4] was 8.44%; in assay [1] it was 5.66%; in assay [5], 10.6%; in assay [2], -6.64%; in assay [3] it was 9.3%.
On the same counts, the results for `CC(C)n1nc(OC(C)(C)C(=O)Nc2ccccn2)c2cc(CN3CCOCC3)ccc21` are -4.62%, -7.48%, -4.33%, -10.4% and -0.106%.
As for `Cc1cnc(CCN)n1Cc1ccccc1`, the activity change, negative = inhibition in assay [4] is -3.58%; in assay [1] it was 2.12%; in assay [5], -43.6%; in assay [2], -9.47%; in assay [3], 3.08%.
On to `CCCn1c(=O)c2ccc(Cl)cc2n2c(=O)n(CC(=O)Nc3ccc(F)cc3)nc12`, for which the activity change, negative = inhibition came out at 1.37% in assay [4]; 2.35% in assay [1]; 4.68% in assay [5]; 1.83% in assay [2]; 4.39% in assay [3].
For `COc1ccc(C(=O)/C(Cc2cc(OC)c(OC)c(OC)c2)=C(\C(=O)O)c2ccc3c(c2)OCO3)cc1` the same measures were -2.81%, 8.57%, 9.51%, -11% and -6.67%.
For `COCc1nc(-c2cccc(NC(=O)CC[C@H]3NC(=O)c4ccccc4NC3=O)c2)n[nH]1` the same measures were -6.49%, -0.197%, -0.425%, -5.13% and -3.92%.
For `COC(=O)c1cc2n(n1)CC(C)(C(=O)NC1CCCCC1)N(c1ccccc1F)C2=O` (stereo not drawn) the same measures were 4.28%, 0.252%, 3.68%, 5.79% and 5.25%.
As to `OC1(CN2CCN(CCc3ccccn3)CC2)CCCNC1` (stereo not drawn), the activity change, negative = inhibition in assay [4] is 0.155%; in assay [1], 0.961%; in assay [5] it was -1.66%; in assay [2], 1.23%; in assay [3], -2.78%.

Source of the values: PubChem BioAssay AID1745853 (National Center for Advancing Translational Sciences (NCATS), 2022).
